# Test results taken from the supplement of paper PMC8728848.
# This is one part of the list.
# Tests used:
# Assay in all cases: glycan array binding signal (z-score within array); higher = stronger binding
# Details in all cases: glycan notation: IUPAC condensed, linker removed
# [1] = target: GalNAc(b1-6)GalNAc
# In short: (§1)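 Glycan array binding is given as a within-array Z-score, which can be read as non-binding when negative. The arrays, 3228 of them, came from the Consortium for Functional Glycomics database and were retained only where the protein sequence was available. Z-scores were averaged across arrays of the same protein sequence at different concentrations or buffers and across linkers.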
# [2] = target: GalNAc3S(b1-4)GlcNAc
# In short: as §1
# [3] = target: GalNAc3S(b1-4)GlcNAc3S
# In short: as §1
# [4] = target: GalNAc3S(b1-4)[Fuc(a1-3)]GlcNAc
# In short: as §1
# [5] = target: GalNAc4S6S(b1-4)GlcNAc
# In short: as §1
# [6] = target: GalNAc6S(b1-4)GlcNAc
# In short: as §1
# [7] = target: Glc(a1-4)Glc
# In short: as §1
# [8] = target: Glc(a1-4)Glc(a1-4)Glc(a1-4)Glc
# In short: as §1
# [9] = target: Glc(a1-6)Glc(a1-6)Glc
# In short: as §1
# [10] = target: Glc(a1-6)Glc(a1-6)Glc(a1-6)Glc
# In short: as §1
# [11] = target: Glc(b1-4)Glc
# In short: as §1
# [12] = target: Glc(b1-6)Glc
# In short: as §1
# [13] = target: GlcA(b1-3)Gal
# In short: as §1
# [14] = target: GlcA(b1-3)GlcNAc
# In short: as §1
# [15] = target: GlcA(b1-6)Gal
# In short: as §1
# [16] = target: GlcA3S(b1-3)Gal(b1-4)GlcNAc(b1-2)Man
# In short: as §1
# [17] = target: GlcA3S(b1-3)Gal(b1-4)GlcNAc(b1-3)Gal(b1-4)Glc
# In short: as §1
# [18] = target: GlcNAc(a1-3)Gal(b1-4)GlcNAc
# In short: as §1
# [19] = target: GlcNAc(a1-4)Gal(b1-3)GlcNAc
# In short: as §1
# [20] = target: GlcNAc(a1-4)Gal(b1-4)GalNAc
# In short: as §1
# [21] = target: GlcNAc(a1-4)Gal(b1-4)GlcNAc
# In short: as §1
# [22] = target: GlcNAc(a1-4)Gal(b1-4)GlcNAc(b1-3)Gal(b1-4)Glc
# In short: as §1
# [23] = target: GlcNAc(a1-4)Gal(b1-4)GlcNAc(b1-3)Gal(b1-4)GlcNAc
# In short: as §1
# [24] = target: GlcNAc(a1-4)Gal(b1-4)GlcNAc(b1-3)Gal(b1-4)GlcNAc(b1-3)Gal(b1-4)GlcNAc
# In short: as §1
# [25] = target: GlcNAc(a1-4)Gal(b1-4)GlcNAc(b1-3)Gal(b1-4)[Fuc(a1-3)]GlcNAc(b1-3)Gal(b1-4)[Fuc(a1-3)]GlcNAc
# In short: as §1
# [26] = target: GlcNAc(a1-6)Gal(b1-4)GlcNAc
# In short: as §1
# [27] = target: GlcNAc(b1-2)Gal(b1-3)GalNAc
# In short: as §1
# [28] = target: GlcNAc(b1-2)Man(a1-3)[GlcNAc(b1-2)Man(a1-6)]Man(b1-4)GlcNAc(b1-4)GlcNAc
# In short: as §1
# [29] = target: GlcNAc(b1-2)Man(a1-3)[GlcNAc(b1-2)Man(a1-6)]Man(b1-4)GlcNAc(b1-4)[Fuc(a1-6)]GlcNAc
# In short: as §1
# [30] = target: GlcNAc(b1-2)Man(a1-3)[GlcNAc(b1-4)][GlcNAc(b1-2)Man(a1-6)]Man(b1-4)GlcNAc(b1-4)GlcNAc
# In short: as §1
# [31] = target: GlcNAc(b1-2)Man(a1-3)[GlcNAc(b1-4)][GlcNAc(b1-2)Man(a1-6)]Man(b1-4)GlcNAc(b1-4)[Fuc(a1-6)]GlcNAc
# In short: as §1
# [32] = target: GlcNAc(b1-2)[GlcNAc(b1-4)]Man(a1-3)[GlcNAc(b1-2)Man(a1-6)]Man(b1-4)GlcNAc(b1-4)GlcNAc
# In short: as §1
# [33] = target: GlcNAc(b1-2)[GlcNAc(b1-4)]Man(a1-3)[GlcNAc(b1-4)][GlcNAc(b1-2)Man(a1-6)]Man(b1-4)GlcNAc(b1-4)GlcNAc
# In short: as §1
# [34] = target: GlcNAc(b1-2)[GlcNAc(b1-4)]Man(a1-3)[GlcNAc(b1-4)][GlcNAc(b1-2)[GlcNAc(b1-6)]Man(a1-6)]Man(b1-4)GlcNAc(b1-4)GlcNAc
# In short: as §1
# [35] = target: GlcNAc(b1-2)[GlcNAc(b1-4)]Man(a1-3)[GlcNAc(b1-4)][GlcNAc(b1-2)[GlcNAc(b1-6)]Man(a1-6)]Man(b1-4)GlcNAc(b1-4)[Fuc(a1-6)]GlcNAc
# In short: as §1
# [36] = target: GlcNAc(b1-2)[GlcNAc(b1-6)]Man(a1-6)[GlcNAc(b1-2)Man(a1-3)]Man(b1-4)GlcNAc(b1-4)GlcNAc
# In short: as §1
# [37] = target: GlcNAc(b1-2)[GlcNAc(b1-6)]Man(a1-6)[GlcNAc(b1-2)Man(a1-3)]Man(b1-4)GlcNAc(b1-4)[Fuc(a1-6)]GlcNAc
# In short: as §1
# [38] = target: GlcNAc(b1-2)[GlcNAc(b1-6)]Man(a1-6)[GlcNAc(b1-4)][GlcNAc(b1-2)Man(a1-3)]Man(b1-4)GlcNAc(b1-4)GlcNAc
# In short: as §1
binder,measurement,setting,value
"UDA (Urtica dioica), P11218 (protein) MMMRFLSAVVIMSSAMAVGLVSAQRCGSQGGGGTCPALWCCSIWGWCGDSEPYCGRTCENKCWSGERSDHRCGAAVGNPPCGQDRCCSVHGWCGGGNDYCSGSKCQYRCSSSVRGPRVALSGNSTANSIGNVVVTEPLFDQMFSHRKDCPSQGFYSYHSFLVAAESFPAFGTIGDVATRKREVAAFLAHISQATSGERSDVENPHAWGLCHINTTTVTENDFCTSSDWPCAAGKKYSPRGPIQLTHNFNYGLAGQAIGEDLIQNPDLVEKDPIISFKTALWFWMSQHDNKPSCHDIVLNANSAANRIPNKGVIGNIISRAFGHDDFAVRSSSIGFYKRYCDMLGVSYGHDLKYWFDNTPSSEFQRIQMRVAA",glycan array binding signal (z-score),[1],-0.11
same,glycan array binding signal (z-score),[2],0.062
same,glycan array binding signal (z-score),[3],-0.187
same,glycan array binding signal (z-score),[4],-0.177
same,glycan array binding signal (z-score),[5],-0.188
same,glycan array binding signal (z-score),[6],-0.185
same,glycan array binding signal (z-score),[7],-0.183
same,glycan array binding signal (z-score),[8],-0.176
same,glycan array binding signal (z-score),[9],-0.168
same,glycan array binding signal (z-score),[10],-0.173
same,glycan array binding signal (z-score),[11],-0.182
same,glycan array binding signal (z-score),[12],-0.186
same,glycan array binding signal (z-score),[13],-0.173
same,glycan array binding signal (z-score),[14],-0.171
same,glycan array binding signal (z-score),[15],-0.167
same,glycan array binding signal (z-score),[16],-0.183
same,glycan array binding signal (z-score),[17],-0.179
same,glycan array binding signal (z-score),[18],0.03
same,glycan array binding signal (z-score),[19],-0.173
same,glycan array binding signal (z-score),[20],-0.171
same,glycan array binding signal (z-score),[21],0.188
same,glycan array binding signal (z-score),[22],-0.172
same,glycan array binding signal (z-score),[23],0.098
same,glycan array binding signal (z-score),[24],1.36
same,glycan array binding signal (z-score),[25],-0.167
same,glycan array binding signal (z-score),[26],-0.176
same,glycan array binding signal (z-score),[27],-0.192
same,glycan array binding signal (z-score),[28],-0.156
same,glycan array binding signal (z-score),[29],-0.168
same,glycan array binding signal (z-score),[30],-0.162
same,glycan array binding signal (z-score),[31],-0.168
same,glycan array binding signal (z-score),[32],0.083
same,glycan array binding signal (z-score),[33],-0.172
same,glycan array binding signal (z-score),[34],-0.175
same,glycan array binding signal (z-score),[35],-0.184
same,glycan array binding signal (z-score),[36],-0.165
same,glycan array binding signal (z-score),[37],-0.162
same,glycan array binding signal (z-score),[38],-0.179
